Source: the GPR68 mutational scans of Howard et al. (2025)
The least precise scores are not listed. The source holds two more conditions with little spread; they are left out. In variant names, del marks residues removed and ins residues inserted between the two positions. For some assays here: How much ogerin was present is not stated here.

B1: GPR68, Q15743 (parent)
chain: MGNITADNSSMSCTIDHTIHQTLAPVVYVTVLVVGFPANCLSLYFGYLQIKARNELGVYLCNLTVADLFYICSLPFWLQYVLQHDNWSHGDLSCQVCGILLYENIYISVGFLCCISVDRYLAVAHPFRFHQFRTLKAAVGVSVVIWAKELLTSIYFLMHEEVIEDENQHRVCFEHYPIQAWQRAINYYRFLVGFLFPICLLLASYQGILRAVRRSHGTQKSRKDQIQRLVLSTVVIFLACFLPYHVLLLVRSVWEASCDFAKGVFNAYHFSLLLTSFNCVADPVLYCFVSETTHRDLARLRGACLAFLTCSRTGRAREAYPLGAPEASGKSGAQGEEPELLTKLHPAFQTPNSPGSGGFPTGRLA

How the values were obtained:
[1] = variants of: B1; test: cAMP reporter score (Enrich2 score, wild type = 0); higher = more signal; HEK293T, FACS bins
[2] = variants of: B1; test: surface expression score (Enrich2 score, wild type = 0); higher = more signal; HEK293T, FACS bins

Row | Variant | cAMP reporter score ([1]; pH 5.5) | cAMP reporter score ([1]; pH 6) | cAMP reporter score ([1]; pH 6, modulator: ogerin) | cAMP reporter score ([1]; pH 6.5, modulator: ogerin) | surface expression score [2]
1 | H345I | -0.062 | -0.993 | -0.148 | -0.479 | -0.036
2 | H345K | -0.016 | -1.27 | 1.14 | -0.463 | 0.899
3 | H345L | 1.15 |  | 1.35 | 0.953 | -0.617
4 | H345M | 0.241 | -0.371 | 0.275 | 0.547 | -0.441
5 | H345N | -0.634 |  | 0.286 |  | 0.646
6 | H345P | 1.01 | 0.463 | 1.16 | 0.877 | 1.43
7 | H345Q | 0.022 | 0.497 | -0.159 | 0.661 | 0.039
8 | H345R | 1.11 | -0.593 | -0.406 |  | 0.644
9 | H345S | 2.09 | 3.29 | 0.763 |  | 1.73
10 | H345T | 0.956 | 1.88 | -0.051 | 0.829 | 1.65
11 | H345V | 0.536 | 0.431 | 0.384 | 0.53 | -0.026
12 | H345W | 0.906 | 1.86 | 0.115 | 3.39 | -0.411
13 | H345Y | -0.413 | -0.161 | -0.191 | 0.016 | -0.358
14 | H345_P346del | 0.346 | 0.046 | 0.281 | -0.034 | 0.637
15 | H345_P346insGSG | 0.629 | 0.472 | 1.23 | 1.33 | 0.93
16 | P346A | 0.428 | -0.369 | -0.298 | 0.017 | -0.041
17 | P346C | 0.505 | -1.41 |  | 0.142 | -0.137
18 | P346D | 0.66 |  | 0.545 | 0.793 | 0.956
19 | P346E | 0.498 | 0.24 | 0.477 | 0.284 | 0.969
20 | P346F | 0.428 | 0.524 | -0.606 | 0.24 | 
21 | P346G | 0.787 |  | 0.612 | 1.09 | 0.743

Row | Variant | cAMP reporter score ([1]; pH 5.5) | cAMP reporter score ([1]; pH 6) | cAMP reporter score ([1]; pH 6, modulator: ogerin) | cAMP reporter score ([1]; pH 6.5, modulator: ogerin) | surface expression score [2]
22 | P346H | 0.783 | -0.305 | 0.267 | 0.548 | 0.438
23 | P346I | 1.7 | -0.769 | 1.19 | 0.292 | 0.352
24 | P346K | 1.27 |  | 0.885 |  | 0.154
25 | P346L | 0.453 | -0.598 | -0.019 | 1.05 | 0.394
26 | P346M | 0.974 | -0.054 | 0.058 | 0.333 | -0.247
27 | P346N | 1.95 | 1.7 | 2.12 | 1.31 | 1.41
28 | P346Q | 1.45 | -0.452 | 1.39 | 0.567 | 1.4
29 | P346R | 1.07 | 0.197 | 0.196 | 0.371 | 0.151
30 | P346S | 0.81 | -0.043 | 0.776 | -0.057 | 0.633
31 | P346V | -0.469 | -0.483 | -0.943 | -0.849 | -0.42
32 | P346W | -0.116 | -0.323 | -0.477 | -0.99 | -0.727
33 | P346Y | -0.646 | -0.764 | 0.434 | -0.636 | -0.749
34 | P346_A347del | 0.545 | 0.95 | 0.974 | 0.157 | 0.252
35 | P346_F348del | -0.22 | -0.459 | -0.166 | -0.601 | -0.161
36 | A347_F348del | 0.339 | 0.063 | 0.662 | 0.279 | 0.271
37 | A347_Q349del | 1.21 | 1.44 | 1.47 | 1.24 | 1.45
38 | Q349_P351del | -0.329 |  | 0.206 | -0.409 | -0.23
39 | Q349_T350insGS | 0.499 | 0.572 | 0.847 | 0.228 | 0.232
40 | T350_N352del | -0.168 | -0.508 | -0.047 | -0.412 | -0.766
41 | T350_P351insG | 0.113 | -0.193 | 0.129 | -0.134 | 0.167
42 | T350_P351insGS | 1.25 | 1.21 | 1.6 | 1.59 | 1.17

Row | Variant | cAMP reporter score ([1]; pH 5.5) | cAMP reporter score ([1]; pH 6) | cAMP reporter score ([1]; pH 6, modulator: ogerin) | cAMP reporter score ([1]; pH 6.5, modulator: ogerin) | surface expression score [2]
43 | T350_P351insGSG | 1.04 |  | 0.687 | -0.479 | 2.35
44 | T350del | -0.275 | -0.44 |  | 1.23 | 0.224
45 | P351A | -0.213 | -0.677 | -0.739 | 0.169 | 
46 | P351C | 0.462 | -0.98 | 0.429 | 0.405 | 0.459
47 | P351D | 0.205 | 1.24 | -0.049 | 0.342 | 0.337
48 | P351E | -0.182 | -0.228 | -0.173 | -0.35 | 0.552
49 | P351F | 1.86 | 0.28 | 1.27 | 0.209 | 1.31
50 | P351G | -0.18 | -0.4 | 0.216 | 0.38 | -0.076
51 | P351H | 0.56 | 1.07 | 0.752 |  | 
52 | P351I | 1.16 |  | 0.278 | 0.864 | -0.151
53 | P351K | 0.888 | 0.211 | 0.176 | 0.212 | -0.48
54 | P351L | 0.999 | 0.879 | 1.33 | 0.952 | 1.52
55 | P351M | 1.07 | -0.501 | 1.21 | 0.675 | 0.375
56 | P351N | -0.549 | -0.763 | -0.646 | -0.04 | -0.796
57 | P351Q | -0.116 | -0.217 | -0.082 | -0.84 | 0.017
58 | P351R | -0.934 | -1.1 | -0.963 | -1.08 | 0.043
59 | P351S | -0.877 | -0.516 | -0.834 | -0.376 | -0.75
60 | P351T | 0.821 | 0.118 | 0.585 | 0.871 | 0.74
61 | P351V | 2.11 | 1.89 | 2.34 | 2 | 1.25
62 | P351Y | 0.997 | 0.9 | 1.08 | 0.445 | 0.654
63 | P351_N352insG | -0.073 | 1.18 |  | 1.24 | 1.39
